{
  "source": "PubChem BioAssay AID485294",
  "about": "(National Center for Advancing Translational Sciences (NCATS), 2010)",
  "note": "Out of some 370,000 compounds screened, about 150 (0.041%) were called active. Inconclusive results, whose numbers are uncertain, are shown with a selection of clear calls. Calls follow the shape of the dose curve; as a rule, active = well fitted inhibition curve with a large enough effect; inconclusive = small, poorly fitted or top-dose-only effect; inactive = flat fitted curve, though single readings scatter. No potency is given beside an inconclusive call; the fits are too rough.",
  "data": [
    {"biological_target": "Beta-lactamase (Escherichia coli (strain K12)) (UniProt P00811)", "sequence (P00811 whole entry, looked up)": "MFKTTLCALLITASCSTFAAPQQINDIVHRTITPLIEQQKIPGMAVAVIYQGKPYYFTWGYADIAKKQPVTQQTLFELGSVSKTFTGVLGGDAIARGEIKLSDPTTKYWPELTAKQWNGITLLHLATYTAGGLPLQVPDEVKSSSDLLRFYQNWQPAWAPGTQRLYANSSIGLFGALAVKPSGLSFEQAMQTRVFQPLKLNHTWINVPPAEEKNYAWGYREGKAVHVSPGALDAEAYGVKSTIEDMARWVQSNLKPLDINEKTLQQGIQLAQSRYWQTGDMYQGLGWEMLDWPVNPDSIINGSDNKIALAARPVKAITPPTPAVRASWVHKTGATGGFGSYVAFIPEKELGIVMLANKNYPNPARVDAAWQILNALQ", "test": "qHTS Inhibitors of AmpC Beta-Lactamase (assay with detergent); also: nearly all actives have a fitted effect of over 25% in size; also: potency is read from the fitted curve at half-maximal effect; tags tell the direction and shape of the fitted curve;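 as to activity change, negative = inhibition: 0% = no-compound wells and -100% = no-enzyme wells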", "conditions": "AmpC hydrolysis of nitrocefin, absorbance 480 nm, 0.01% Triton; activity change, negative = inhibition: at 114 µM (top of the series)", "how_it_was_run": "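AmpC (5.3 nM in the dispensed reagent) in 20 mM phosphate pH 7.0 with 0.01% (detergent screen) or 0.0001% Triton X-100 was preincubated with compounds for 15 min at room temperature. Nitrocefin was then added from an 800 uM solution, and hydrolysis was followed at 480 nm.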", "values": [
      {"compound": "COC(=O)c1ccc(NC(C)C(=O)OC)c([N+](=O)[O-])c1", "note": "(stereo not drawn)", "Potency": "inconclusive [inhibitor, full curve, poor fit]"},
      {"compound": "O=c1[nH]c2ccc(Cl)cc2c(-c2ccccc2)c1N1CCOCC1", "Potency": "inconclusive [inhibitor, partial curve, poor fit]"},
      {"compound": "C/C(=N\\NC(=O)c1ccco1)c1cc(Cl)sc1Cl", "activity change, negative = inhibition": "inactive: 0.559%"},
      {"compound": "O=C(Nc1c(-c2ccccc2)nc2ccccn12)c1ccccc1F", "Potency": "inconclusive [inhibitor, partial curve, poor fit]"},
      {"compound": "CSc1nnc2c(n1)OC(C1CC=C(C)CC1)Nc1ccccc1-2", "note": "(stereo not drawn)", "Potency": "inconclusive [inhibitor, partial curve]"},
      {"compound": "CC(C)C(OC(=O)Cn1nnc2ccccc21)C(=O)NC1CCCC1", "note": "(stereo not drawn)", "Potency": "inconclusive [inhibitor, full curve, poor fit]"},
      {"compound": "Cc1c(C)c2c(OCC(=O)Nc3cccnc3)cc3c(c2oc1=O)CCC(C)(C)O3", "activity change, negative = inhibition": "inactive: -15.3%"},
      {"compound": "Cc1ccc(N2CCN(/N=C/c3ccccc3[N+](=O)[O-])CC2)cc1", "activity change, negative = inhibition": "inactive: 1.38%"},
      {"compound": "O=C(C1CC(c2ccccc2O)=NO1)N1CCC2(CC1)OCCO2", "note": "(stereo not drawn)", "Potency": "inconclusive [inhibitor, full curve, poor fit]"},
      {"compound": "O=C(CCc1nnc(-c2ccsc2)o1)N1CCCCC1CCn1ccnc1", "note": "(stereo not drawn)", "activity change, negative = inhibition": "inactive: -3.46%"},
      {"compound": "CCCn1c(C(O)c2ccc(OC)c(OC)c2)nc2ccccc21", "note": "(stereo not drawn)", "Potency": "inconclusive [inhibitor, full curve, poor fit]"},
      {"compound": "O=C(NCCN1CCOCC1)c1ccc2c(c1)N(Cc1ccc(F)cc1)C(=O)CS2", "Potency": "inconclusive [inhibitor, partial curve, poor fit]"},
      {"compound": "COc1ccc(C2C=C(c3ccccc3)Nc3ncnn32)cc1", "note": "(stereo not drawn)", "activity change, negative = inhibition": "inactive: -9.59%"},
      {"compound": "COc1ccc(NC(=O)C2(c3cccs3)CCOCC2)cc1", "Potency": "inconclusive [inhibitor, full curve]"},
      {"compound": "O=C1CC(c2ccc(F)cc2)c2c(c3ccccc3[nH]c2=O)O1", "note": "(stereo not drawn)", "activity change, negative = inhibition": "inactive: -5.28%"},
      {"compound": "CC(=O)Oc1ccc2ccccc2c1C(NC(=O)Cc1ccccc1)c1ccc(Cl)cc1", "note": "(stereo not drawn)", "activity change, negative = inhibition": "inactive: -4.71%"},
      {"compound": "CCC(C)(C)n1nnnc1C(c1ccc(C)cc1)N1CCSCC1", "note": "(stereo not drawn)", "activity change, negative = inhibition": "inactive: -16.8%"},
      {"compound": "CC1=C(C(=O)OC(C)C)C(c2cccs2)NC(=O)N1", "note": "(stereo not drawn)", "activity change, negative = inhibition": "inactive: -14.5%"},
      {"compound": "Cn1nc([N+](=O)[O-])nc1Oc1ccccc1F", "Potency": "inconclusive [inhibitor, single point]"},
      {"compound": "CCCCCOc1ccc(C(=O)Nc2ccc(S(=O)(=O)Nc3cc(C)on3)cc2)cc1", "Potency": "inconclusive [inhibitor, full curve, poor fit]"},
      {"compound": "CC1=NNC(=O)C1CCC(=O)N/N=C(/C)c1ccc([N+](=O)[O-])cc1", "note": "(stereo not drawn)", "Potency": "inconclusive [inhibitor, full curve, poor fit]"},
      {"compound": "O=C(Cn1c(=O)oc2ccccc21)N1CCN(c2ccccc2)CC1", "activity change, negative = inhibition": "inactive: -9%"},
      {"compound": "CC(Sc1nc(-c2ccccc2)cc(C(F)(F)F)n1)C(=O)N1CCCC1", "note": "(stereo not drawn)", "Potency": "inconclusive [inhibitor, full curve, poor fit]"},
      {"compound": "CC1Cc2ccccc2N1C(=O)C(C)n1cc(C(F)(F)F)cc(Cl)c1=O", "note": "(stereo not drawn)", "Potency": "inconclusive [inhibitor, full curve, poor fit]"},
      {"compound": "CC(C)O/N=C1\\C(=O)N(c2ccccc2)c2ccccc21", "Potency": "inconclusive [inhibitor, full curve, poor fit]"},
      {"compound": "COc1ccc(NC(=O)Nc2c(C)n(-c3ccccc3)c(=O)n2C)cc1OC", "Potency": "inconclusive [inhibitor, partial curve, poor fit]"},
      {"compound": "C(=N\\Nc1ncnc2sc3c(c12)CCC3)/c1ccncc1", "Potency": "inconclusive [inhibitor, single point]"},
      {"compound": "NC(C(=O)O)c1cc(=O)[nH]o1", "note": "(stereo not drawn)", "Potency": "inconclusive [inhibitor, full curve, poor fit]"},
      {"compound": "O=C(c1ccco1)N1CCN(C2CC(=O)N(c3ccc(C(F)(F)F)cc3)C2=O)CC1", "note": "(stereo not drawn)", "activity change, negative = inhibition": "inactive: -3.77%"},
      {"compound": "Cc1cccc(Nc2nc(C)nc3c2oc2ccccc23)c1", "activity change, negative = inhibition": "inactive: 7.12%"},
      {"compound": "O=C(NCc1nnc(SCc2ccc(F)cc2)n1-c1ccccc1)C12CC3CC(CC(C3)C1)C2", "activity change, negative = inhibition": "inactive: -1.61%"},
      {"compound": "Cc1ccccc1C1=CCN(c2ncc(NC(=O)c3ccc(Cl)cc3)cc2C(=O)O)CC1", "activity change, negative = inhibition": "inactive: 2.39%"},
      {"compound": "COc1ccc(Nc2ccc(C(=O)O)cc2[N+](=O)[O-])cc1", "Potency": "inconclusive [inhibitor, full curve, poor fit]"},
      {"compound": "Brc1ccc(C2=CSC3=NCCN23)cc1", "Potency": "inconclusive [inhibitor, single point]"},
      {"compound": "CC(C)c1ccc(N2C(=O)NC(=O)/C(=C/C=C/c3ccco3)C2=O)cc1", "Potency": "inconclusive [inhibitor, partial curve, poor fit]"},
      {"compound": "CCCCC(=O)Nc1nnc(SCC(=O)NCC2CCCO2)s1", "note": "(stereo not drawn)", "Potency": "inconclusive [inhibitor, partial curve]"},
      {"compound": "O=S(=O)(c1cc(F)ccc1F)N1CCC2(CC1)OCCN2S(=O)(=O)c1ccccc1", "Potency": "inconclusive [inhibitor, full curve]"},
      {"compound": "Cc1ccc(NC(=O)CSc2nc3ccc(NC(=O)COc4ccc(C)cc4)cc3s2)cc1", "activity change, negative = inhibition": "inactive: 17.9%"},
      {"compound": "Cc1nn(S(=O)(=O)c2ccc(Cl)cc2)c(C)c1S(=O)(=O)N1CCOCC1", "activity change, negative = inhibition": "inactive: -2.49%"},
      {"compound": "COC(=O)Cn1c(C)nc2c(sc3nc(C)cc(C)c32)c1=O", "Potency": "inconclusive [inhibitor, single point]"},
      {"compound": "CCOC(=O)c1c(C)[nH]c(C(=O)OCC(=O)N2CCc3ccccc32)c1C", "Potency": "inconclusive [inhibitor, full curve, poor fit]"},
      {"compound": "Cc1ccccc1OCC(=O)Nc1ccccc1NC(=O)c1ccco1", "Potency": "inconclusive [inhibitor, partial curve]"},
      {"compound": "Cc1ccccc1C(=O)Nc1c(C(=O)N(CCN(C)C)Cc2ccco2)oc2ccccc12", "Potency": "inconclusive [inhibitor, partial curve]"},
      {"compound": "C=CCn1c2[n+](c3ccccc3c1=O)CCCCC2", "Potency": "inconclusive [inhibitor, full curve, poor fit]"},
      {"compound": "CC1(C(=O)O)C=CCN1C(=O)c1ccccc1", "note": "(stereo not drawn)", "Potency": "inconclusive [inhibitor, partial curve, poor fit]"},
      {"compound": "O=C1C2C3C=CC(C3)C2C(=O)N1/N=C/c1cc(Br)cc([N+](=O)[O-])c1O", "note": "(stereo not drawn)", "Potency": "inconclusive [inhibitor, full curve]"},
      {"compound": "Cc1cc(Br)ccc1OCCCCNC(C)(C)C", "Potency": "inconclusive [inhibitor, full curve, poor fit]"},
      {"compound": "COc1ccc(C(c2sc3nc(C)nn3c2O)N2CCC(O)CC2)cc1OC", "note": "(stereo not drawn)", "Potency": "inconclusive [inhibitor, full curve, poor fit]"},
      {"compound": "Cc1c(/C=C(\\C#N)C(=O)Nc2cccc(Cl)c2)c2ccccc2n1Cc1ccccc1", "activity change, negative = inhibition": "inactive: 10.3%"},
      {"compound": "COC(=O)Cc1cc(=O)[nH]c(Nc2nc3ccccc3o2)n1", "activity change, negative = inhibition": "inactive: -14%"},
      {"compound": "COC(=O)c1sc2cccc(F)c2c1S(=O)(=O)Nc1ccc(C)cc1Cl", "activity change, negative = inhibition": "inactive: 15.2%"},
      {"compound": "CCOc1ccc(CCNC(=O)COC(=O)c2nn(C)c(=O)c3ccccc23)cc1OCC", "activity change, negative = inhibition": "inactive: -6.86%"},
      {"compound": "CC(=O)Nc1ccc(CN2CCCCCC2)cc1", "Potency": "inconclusive [inhibitor, full curve, poor fit]"},
      {"compound": "O=c1cc(Cl)[nH]n(-c2ccccc2)c1=O", "Potency": "inconclusive [inhibitor, full curve, poor fit]"},
      {"compound": "CCOc1ccc(C(=O)NCC2CCCO2)cc1", "note": "(stereo not drawn)", "Potency": "inconclusive [inhibitor, full curve]"},
      {"compound": "C[C@]12CCC(=O)C=C1CCC1C2CC[C@@]2(C)C1CC[C@@]2(O)CC#N", "note": "(stereo partly drawn)", "activity change, negative = inhibition": "inactive: -13.7%"},
      {"compound": "O=C(Nc1ccc(-c2nc3ccccc3s2)c(OC(=O)c2ccccc2)c1)c1ccccc1", "Potency": "inconclusive [inhibitor, full curve, poor fit]"},
      {"compound": "Cc1cccc(Cc2c(C)nc3nc(SCc4ccccc4Cl)nn3c2C)c1", "Potency": "inconclusive [inhibitor, single point]"},
      {"compound": "COc1cc2c(cc1OC)C(C)N(C(=O)c1cccs1)CC2", "note": "(stereo not drawn)", "activity change, negative = inhibition": "inactive: 4.8%"},
      {"compound": "Cc1noc(C)c1CSc1nnc2ccc3ccccc3n12", "Potency": "inconclusive [inhibitor, full curve, poor fit]"},
      {"compound": "CC(NC(=O)Nc1ccccc1)C(c1ccccc1)N1CCOCC1", "note": "(stereo not drawn)", "Potency": "inconclusive [inhibitor, full curve, poor fit]"},
      {"compound": "CCC1(C)NC(=O)N(CC(=O)Nc2sc3c(c2C(N)=O)CCC3)C1=O", "note": "(stereo not drawn)", "Potency": "inconclusive [inhibitor, partial curve, poor fit]"},
      {"compound": "Cn1c(=O)c([N+](=O)[O-])c(NCCc2ccccc2)c2ccccc21", "Potency": "inconclusive [inhibitor, partial curve, poor fit]"},
      {"compound": "COc1ccc([N+](=O)[O-])cc1N(CC(O)CN(CC(C)C)CC(C)C)S(=O)(=O)c1ccccc1", "note": "(stereo not drawn)", "activity change, negative = inhibition": "inactive: 1.92%"},
      {"compound": "CC(C)Oc1ccc(Cn2c(=O)sc3ccccc32)cc1", "Potency": "inconclusive [inhibitor, full curve, poor fit]"},
      {"compound": "c1cnc(SCCOc2cccc3ccccc23)nc1", "Potency": "inconclusive [inhibitor, single point]"},
      {"compound": "CC1Cc2cc(/C(O)=C3/C(=O)C(=O)N(CCN4CCOCC4)C3c3ccc([N+](=O)[O-])cc3)ccc2O1", "note": "(stereo not drawn)", "Potency": "inconclusive [inhibitor, full curve, poor fit]"},
      {"compound": "CN(C)c1ccc(S(=O)(=O)N2CCCCC2)cc1NC(=O)C1=NN(c2ccccc2)C(=O)CC1", "Potency": "inconclusive [inhibitor, full curve, poor fit]"}
    ]}
  ]
}
